{"source": "ChEMBL document CHEMBL1201862", "about": "“PubChem BioAssay data set” (2004)", "note": "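Values below derive from 48-hour exposures of cells grown in 96-well plates, with endpoints linearly interpolated between the two concentrations bracketing the appropriate inhibition level. GI50 marks 50% less growth.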 Activity calls are given as the source filed them. Rule as the data show it: active = GI50 up to about 1.1 µM and inactive = higher.", "data": [{"test_system": "NCI-H322M", "test": "inhibition of tumour cell growth, NCI panel, 48 h", "values": [{"smiles": "O=C(c1ccccc1)[C@H]1Nc2ccc(Cl)cc2[C@H]2CCC[C@@H]12", "GI50": "inactive: 64 µM"}, {"smiles": "CCOP(=O)(C=C=C(C)C)OCC", "GI50": "inactive: > 100 µM"}, {"smiles": "Cc1c2oc3c(C)cnc(C(=O)NC4C(=O)NC(C(C)C)C(=O)N5CCCC5C(=O)N(C)CC(=O)N(C)C(C(C)C)C(=O)OC4C)c3nc-2c(C(=O)NC2C(=O)NC(C(C)C)C(=O)N3CCCC3C(=O)N(C)CC(=O)N(C)C(C(C)C)C(=O)OC2C)c(N)c1=O", "note": "(configuration not stated)", "GI50": "inactive: 5.73 µM"}, {"smiles": "Oc1cc2cc(O)nc(O)c2c(O)n1", "GI50": "inactive: > 100 µM"}, {"smiles": "CC1CC(c2ccccc2)=Nc2ccccc2S1(=O)=O", "note": "(configuration not stated)", "GI50": "inactive: 11.2 µM"}, {"smiles": "COC(=O)C(Cc1ccccc1)NC(=O)c1ccc(CNC(=S)NCc2cccc(CNC(=S)NCc3ccccc3)c2)cc1", "note": "(configuration not stated)", "GI50": "inactive: > 35.5 µM"}, {"smiles": "C#CCOCC12C=CC(O1)C1COC(=O)C12", "note": "(configuration not stated)", "GI50": "inactive: > 100 µM"}, {"smiles": "Cc1cc(C)c(C(=O)O)c(SSc2cc(C)cc(C)c2C(=O)O)c1", "GI50": "inactive: > 100 µM"}, {"smiles": "CC(=O)OCc1c(O)nc2c(c1O)-c1ccccc1CC2", "GI50": "inactive: 160 µM"}, {"smiles": "CCOC(=O)CCC(=O)C1c2cccc(O)c2C(=O)c2c(O)cc(C)cc21", "note": "(configuration not stated)", "GI50": "active: 0.561 µM"}, {"smiles": "C/C1=C\\CC[C@@]2(C)O[C@@H]2C[C@@H]2[C@H](C/C(C)=C/CC1)OC(=O)C21CC1", "GI50": "inactive: > 100 µM"}, {"smiles": "NC1=NS(=O)(=O)N=C(N)C1=Cc1ccc([N+](=O)[O-])o1", "GI50": "inactive: 57.1 µM"}, {"smiles": "OC(Cc1ccc2ccccc2n1)(C(F)(F)Cl)C(F)(F)Cl", "GI50": "inactive: > 10 µM"}, {"smiles": "COc1cc2c(cc1OC)-c1cc3cc(OC)c(OC)cc3c(=O)n1CC2", "GI50": "inactive: 5.51 µM"}, {"smiles": "COc1ccc(OC)c2c(=S)c3ccccc3[nH]c12", "GI50": "inactive: 98.6 µM"}, {"smiles": "N#CC(C#N)=c1c2nsnc2c(=C(C#N)C#N)c2nsnc12", "GI50": "inactive: 1.73 µM"}, {"smiles": "CC(=O)OCC1OC(n2c(-c3ccc(Cl)cc3)ccc(C#N)c2=S)C(OC(C)=O)C(OC(C)=O)C1OC(C)=O", "note": "(configuration not stated)", "GI50": "inactive: > 100 µM"}, {"smiles": "COC(=O)C1=NC(=S)NC(c2ccccc2)C1c1nc2ccccc2s1", "note": "(configuration not stated)", "GI50": "inactive: > 100 µM"}, {"smiles": "O=C(c1nc2ccc(Cl)cc2[nH]c1=O)C(O)c1cccc([N+](=O)[O-])c1", "note": "(configuration not stated)", "GI50": "inactive: > 100 µM"}, {"smiles": "CCOC(=O)C(=[N+]=[N-])C(=O)C[N+]12CCN(CC1)CC2", "GI50": "inactive: > 100 µM"}, {"smiles": "CCOc1ccc(/N=C(/NC(=O)c2ccccc2)SC)cc1", "GI50": "inactive: > 100 µM"}, {"smiles": "N#Cc1c(C(N)=O)ncn1Cc1ccccc1", "GI50": "inactive: > 100 µM"}, {"smiles": "O=C(/C=C/c1ccccc1)CCN1CCOCC1", "GI50": "inactive: 22.7 µM"}, {"smiles": "CSCCC(NC(=O)Cc1ccc(C(=O)c2ccccc2)cc1)C(=O)N1CCN(CCCCN2c3ccccc3Sc3cc(N=[N+]=[N-])ccc32)CC1", "note": "(configuration not stated)", "GI50": "inactive: > 100 µM"}, {"smiles": "C=C(CN(C)C)C(=O)c1ccccc1OC", "GI50": "inactive: > 71.1 µM"}, {"smiles": "CN1CN(c2ccccc2)C2(CCN(Cc3nc4ccccc4s3)CC2)C1=O", "GI50": "inactive: 18 µM"}, {"smiles": "C[N+](C)(C)CC(=O)N/N=C(/Cc1nc2ccc(Cl)cc2nc1O)C1=NS(=O)(=O)c2cc(S(N)(=O)=O)c(Cl)cc2N1", "GI50": "inactive: > 100 µM"}, {"smiles": "C/C=C(/C)c1cnc(CC(C)C)c(=O)[nH]1", "GI50": "inactive: > 100 µM"}, {"smiles": "C[N+]1(C)CC=C(N2CCOCC2)CC1", "GI50": "inactive: > 10 µM"}, {"smiles": "CC1=CC(=O)/C(=C/NC(=S)NCCc2ccccc2)C(=O)O1", "GI50": "inactive: 37.8 µM"}, {"smiles": "CCCCCCCCCCCCCCCC(=O)NC1CCc2cc(O)c(O)c(O)c2-c2ccc(SC)c(=O)cc21", "note": "(configuration not stated)", "GI50": "inactive: 13.7 µM"}, {"smiles": "C/C(=C\\c1ccccc1)C(=O)c1c(C)cc(C)cc1C", "GI50": "inactive: > 100 µM"}, {"smiles": "C/C(=N\\O)C1CC2C=C(C#N)C1N(Cc1ccccc1)C2", "note": "(configuration not stated)", "GI50": "inactive: 98.2 µM"}, {"smiles": "C=C1CC2(CCCC3(CC(=C)C(=O)O3)C2(C)C)OC1=O", "note": "(configuration not stated)", "GI50": "inactive: 14.3 µM"}, {"smiles": "CC(=O)O[C@H]1CC2C=CC3C(CCC31)O2", "note": "(some centres not stated)", "GI50": "inactive: > 100 µM"}, {"smiles": "O=C(CSSCC(=O)Nc1ccc(Br)cc1)Nc1ccc(Br)cc1", "GI50": "inactive: 24.1 µM"}, {"smiles": "CN(C)/N=N/c1ccc(C(N)=O)cc1", "GI50": "inactive: > 100 µM"}]}]}
